The results in this text go back to ChEMBL document CHEMBL4888484, “Replenishing the malaria drug discovery pipeline: Screening and hit evaluation of the MMV Hit Generation Library 1 (HGL1) against asexual blood stage Plasmodium falciparum ,using a nano luciferase reporter read-out” (2022).

A word on the % Inhibition: it is the relative decrease from the control value, in per cent.

The whole screen tested about 150,000 compounds, of which about 540 (0.36%) showed an effect of 50% or more. This is one part of the list.

The assay relates to Plasmodium falciparum. Put plainly: Primary screen in NF54 nanoGlo assay, in single point, at 2uM, 72h; a lower Z score goes with more inhibition. Type of assay: functional, Erythrocyte. To be noted: timepoint 72 hour.
Turning to `Cc1ccc(C)c(S(=O)(=O)N(C2CC2)[C@H]2CCS(=O)(=O)C2)c1`, the “% Inhibition” value is given as -1% and the Z score is recorded as 0.13.
In the case of `CNC(=O)CCCN(C)C(=O)c1ccc(-c2ncn[nH]2)cc1`, the “% Inhibition” value is -13% and the Z score stood at 1.3.
`Cn1nc(CCC(=O)N2CCOCC2)c2c1CCN(C(=O)c1n[nH]c3ccccc13)C2`: the “% Inhibition” value is listed as -13% and the Z score is 1.69.
The matching figures for `CCOC(=O)N1CCN(c2nc(Nc3ccc(C)cc3)c3nn[nH]c3n2)CC1`: -21% and 2.79.
Taken in the same sequence, the figures for `O=C(NC[C@H]1CCN(CCC(F)(F)F)C1)c1ccc2c(c1)OCO2` were 0% and 0.08.
On to `CCN(C)C[C@@H]1CN(Cc2ccc3ccccc3c2)C[C@@H]1CO`, for which the “% Inhibition” value is -14% and the Z score worked out at 2.43.
Regarding `CC(=Cc1ccccc1)CN(C)S(=O)(=O)N(C)[C@@H](C)CC#N`, the “% Inhibition” value is given as -5% and the Z score is given as 0.77.
`C#CCN(C(=O)CCc1ccc(F)cc1)[C@H]1CCS(=O)(=O)C1`: the “% Inhibition” value was -11% and the Z score was 1.66.
The matching figures for `COCCOc1cc(C(=O)Nc2onc3c2CCCC3)ccn1`: -12% and 2.23.
Taken in the same sequence, the figures for `Cc1cnc(Cn2cnc(-c3ccccc3)c2-c2cc(C)n[nH]2)cn1` were -13% and 1.7.
As to `CNC(=O)[C@@H]1CC[C@](C)(C(=O)NCCc2nc(C)cc(C)n2)C1(C)C`, the “% Inhibition” value is -7% and the Z score came out at 1.13.
For `Fc1cccc(-c2ccc(N3CCC(NCc4ncc[nH]4)CC3)cc2)c1`, the “% Inhibition” value is reported as -8% and the Z score came to 0.76.
On to `O=C(CCC(F)(F)F)N[C@H]1CC(=O)N(C2CCCCCC2)C1`, for which the “% Inhibition” value amounted to 4% and the Z score was -0.81.
For `Cn1nccc1CN1C(=O)N[C@]2(CCc3cc(Cl)ccc32)C1=O`, the “% Inhibition” value is on record as -6% and the Z score stood at 0.89.
In the case of `Cc1cccc(N2C(=O)C3ON(c4ccccc4)C(c4c(C)[nH]c5ccccc45)C3C2=O)c1` (stereo unspecified), the “% Inhibition” value was -7% and the Z score stood at 1.09.
For the compound `COc1ccc(CCC(=O)Nc2cc(C)ns2)cc1`, the “% Inhibition” value is listed as 2% and the Z score is -0.32.
Taken in the same sequence, the figures for `CC(C)(C)N1C[C@@H](CNC(=O)c2cncnc2)CC1=O` were 10% and -1.61.
The matching figures for `c1cc(-c2nc3c(c(NC[C@H]4CCCO4)n2)CCC3)ccn1`: -9% and 1.38.
On to `N#Cc1nccnc1N[C@H]1CCCC2(C1)OCCO2`, for which the “% Inhibition” value was -3% and the Z score is recorded as 0.41.
Take `CN(Cc1nc(-c2ccncc2)no1)C(=O)[C@H]1CCCN(Cc2ccco2)C1`: the “% Inhibition” value is on record as -3% and the Z score was found to be 0.56.
In the case of `Cc1nnsc1CN(C)C(=O)c1cccc(F)c1`, the “% Inhibition” value is -14% and the Z score is 2.08.
For `Cn1cc(C(=O)N2CC[C@H](c3cccc(C(F)(F)F)c3)C2)cn1`, the “% Inhibition” value is reported as -15% and the Z score stood at 1.77.
For the compound `Cc1nn(CC(F)F)cc1C(=O)Nc1ccc2c(c1)NC(=O)C2`, the “% Inhibition” value was -1% and the Z score amounted to 0.14.
